Data from PubChem BioAssay AID2451 (National Center for Advancing Translational Sciences (NCATS), 2010).
The whole screen tested about 290,000 compounds, of which about 2,100 (0.72%) were called active. This list was built around the results that the source calls inconclusive (neither active nor inactive); the mix of calls is not that of the screen. Calls follow the shape of the dose curve; as a rule, active = well fitted inhibition curve with a large enough effect; inconclusive = small, poorly fitted or top-dose-only effect, or effect the other way; inactive = flat fitted curve, though single readings scatter. Potencies of inconclusive entries are doubtful fits and often do not repeat.

Each compound was assayed against Fructose-bisphosphate aldolase (Giardia intestinalis (strain ATCC 50803 / WB clone C6)) (UniProt A8B2U2) (assay: qHTS Assay for Inhibitors of Fructose-1,6-bisphosphate Aldolase from Giardia Lamblia). Settings: purified Giardia FBPA; activity, negative = inhibition: at 59.6 µM (top of the series) unless noted.
Sequence of UniProt A8B2U2 (A8B2U2 whole entry, looked up): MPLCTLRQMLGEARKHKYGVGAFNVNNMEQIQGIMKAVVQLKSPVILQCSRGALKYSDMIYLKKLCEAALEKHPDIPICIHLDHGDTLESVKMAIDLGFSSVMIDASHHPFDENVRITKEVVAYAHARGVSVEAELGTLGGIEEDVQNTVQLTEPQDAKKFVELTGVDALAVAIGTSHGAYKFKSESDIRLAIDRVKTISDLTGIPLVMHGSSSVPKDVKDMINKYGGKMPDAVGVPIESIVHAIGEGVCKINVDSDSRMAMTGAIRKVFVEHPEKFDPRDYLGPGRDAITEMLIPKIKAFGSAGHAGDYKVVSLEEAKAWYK
In short: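 Giardia FBPA (40 nM reagent) was preincubated 10 min at RT with compound (up to 57.5 uM final), then substrate plus GAPDH/TPI/NAD/arsenate coupling system with diaphorase/resazurin was added; resorufin fluorescence (525/598 nm) was read after 20 min.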
% is scaled to controls: 0 for no effect and ±100 for the full control effect; potency is read from the fitted curve at half-maximal effect; tags tell the direction and shape of the fitted curve.
Also: nearly all actives have a fitted effect of over 55% in size.

| Compound | Potency | activity, negative = inhibition |
| --- | --- | --- |
| CN(C)c1cccc(NC(=O)CCc2ccccc2)c1 | inconclusive: 15.8 µM [inhibitor, single point] |  |
| CC12CCCCC1(O)[N+](=O)C1=C(CCCC1)N2[O-] (stereo not given) | inconclusive: 17.7 µM [inhibitor, partial curve] |  |
| COc1cc(C2C(C(=O)c3cc4ccccc4o3)=C(O)C(=O)N2c2cc(C)on2)cc(OC)c1OC (stereo not given) | inconclusive: 28.2 µM [inhibitor, single point] |  |
| COc1ccc(C2NC(=O)C(C#N)=C(S)N2c2ccccc2)cc1OC (stereo not given) | inconclusive: 15.8 µM [inhibitor, partial curve] |  |
| CN(Cc1ccco1)c1cc(-c2ccoc2)ncn1 | inconclusive: 17.7 µM [inhibitor, partial curve] |  |
| Cc1[nH]c2ccccc2c1C(=O)C(=O)NCC1CCCO1 (stereo not given) |  | inactive: 4.53% |
| CC(C(=O)C12CC3CC(CC(C3)C1)C2)N1CCOCC1 (stereo not given) | inconclusive: 14.1 µM [inhibitor, partial curve] |  |
| NC[C@H](O)c1ccc(O)cc1 | inconclusive: 14.1 µM [inhibitor, partial curve] |  |
| CCC(=O)N1CCc2cc(S(=O)(=O)NCCC(=O)Nc3ccc(OC)cc3)ccc21 |  | inactive: 3.12% |
| Cc1nc(C(=O)NNC(=O)c2cccc(Cl)c2)c(C(F)(F)F)o1 | inconclusive: 15.8 µM [inhibitor, partial curve] |  |
| O=C(Cn1nc2ccccc2n1)N/N=C/c1cc([N+](=O)[O-])ccc1O | inconclusive: 35.4 µM [inhibitor, single point] |  |
| CCn1c(=O)c(C(=O)CN(C)Cc2cccc(OC)c2OC)c(N)n(Cc2ccccc2)c1=O | active: 15.8 µM |  |
| Cc1noc(NS(=O)(=O)c2ccc(N/C=C\C(=O)c3ccccc3)cc2)c1C | inconclusive: 22.3 µM [activator, partial curve] |  |
| O=C(NCCc1ccccn1)c1cccc(S(=O)(=O)N2CCc3ccccc32)c1 |  | inactive: -9.93% |
| Cc1c(Cl)cccc1N/C(SCC(=O)N1CCCCCC1)=C(/C#N)c1nc2ccccc2s1 |  | inactive: -4.93% |
| NS(=O)(=O)c1ccc(CCNC(=O)CNCCc2ccccc2)cc1 | inconclusive: 12.6 µM [inhibitor, partial curve] |  |
| CC1=CC(C)(C)N=C(Nc2ccc(C)cc2)S1 |  | inactive: 2.64% |
| Cc1sc2nc3c(SC(C)C(=O)O)cc(C(=O)c4ccccc4O)cn3c(=O)c2c1C (stereo not given) | inconclusive: 17.7 µM [inhibitor, partial curve] |  |
| Clc1ccc(Nc2ccc(Cl)nn2)cc1 |  | inactive: -6.75% |
| CC1(C)Cc2c(C#N)c(N)sc(=S)c2CS1 | inconclusive: 11.2 µM [inhibitor, partial curve] |  |
